Measured values published in the RNAGym collection of RNA variant scans (doi:10.7554/elife.90254).
Read counts are not given, so values of variants with three or more changes are uncertain.

B1: LINE1-mini (parent)
chain: GGCAGAGCUCAACACAGCGUGGCAAAGUGGCUGUGGCUAGACUGCC

Variants of: B1
Test: self-cleavage, relative activity (ratio to wild type); higher = more cleavage; in vitro, sequencing; the parent is a self-cleaving ribozyme

Q: Which self-cleavage does the source give for A11G U20C G35A A41U C45G here?
A: The self-cleavage was 0.

Q: For G19U G21U U28A U34C, which self-cleavage is on record?
A: The self-cleavage was 1.11.

Q: With A12U C18G G19A C23G C46A as the variant, how does the self-cleavage read?
A: The self-cleavage was 0.08.

Q: Which self-cleavage does the source give for G2A A6U G30C U34G C37A here?
A: The self-cleavage was 0.04.

Q: Which self-cleavage does the source give for G1A A4G U9A C18A C42U here?
A: Its self-cleavage is 0.61.

Q: Which self-cleavage does the source give for A11C G17A U28A G33U C46U here?
A: Its self-cleavage is 0.01.

Q: With G2A C37A A41G as the variant, how does the self-cleavage read?
A: Its self-cleavage is 0.2.

Q: For G29A U32C G33U, which self-cleavage is on record?
A: Its self-cleavage is 0.03.

Q: For C8U U9C C10A G17U A26C, which self-cleavage is on record?
A: Its self-cleavage is 0.

Q: With C3A G22A U28G as the variant, how does the self-cleavage read?
A: Its self-cleavage is 0.34.

Q: For G5U C10A A14G C23A A24G A26U, which self-cleavage is on record?
A: The self-cleavage was 0.02.

Q: With G2U A4G G17U G21C G22A U28G G33U G40U U43G as the variant, how does the self-cleavage read?
A: The self-cleavage was 0.

Q: Which self-cleavage does the source give for G7U A16G A24U here?
A: The self-cleavage was 0.05.

Q: With A26G C31G U32A as the variant, how does the self-cleavage read?
A: The self-cleavage was 0.06.

Q: With A6U G7U C31U U34A as the variant, how does the self-cleavage read?
A: The self-cleavage was 0.02.

Q: For G1U U20G G36A, which self-cleavage is on record?
A: Its self-cleavage is 0.06.

Q: Which self-cleavage does the source give for G7A C23A G44U here?
A: The self-cleavage was 0.28.

Q: For G5A C15U G22A A41G C45G, which self-cleavage is on record?
A: Its self-cleavage is 0.09.

Q: Which self-cleavage does the source give for G17U C18U C31A U38A here?
A: Its self-cleavage is 0.56.

Q: For C15U G21A G30U C42U, which self-cleavage is on record?
A: The self-cleavage was 0.05.

Q: With G1U A41C C42G as the variant, how does the self-cleavage read?
A: The self-cleavage was 0.03.

Q: With A6U A25U G36A C37U U38A as the variant, how does the self-cleavage read?
A: Its self-cleavage is 0.21.

Q: For C3A A4C A11C G29A C45A, which self-cleavage is on record?
A: The self-cleavage was 0.01.

Q: Which self-cleavage does the source give for G2C A12U G17U here?
A: Its self-cleavage is 0.02.

Q: With G17A C18G A25C U38C as the variant, how does the self-cleavage read?
A: The self-cleavage was 0.02.

Q: For G2U C8A C10G, which self-cleavage is on record?
A: The self-cleavage was 0.03.

Q: Which self-cleavage does the source give for C8G C15U A16G G17U U20G G22A G44U here?
A: Its self-cleavage is 0.03.

Q: Which self-cleavage does the source give for G5A G17A U38C C42A C45U here?
A: Its self-cleavage is 0.

Q: Which self-cleavage does the source give for C3G A16U A25G A39U A41C C45G here?
A: Its self-cleavage is 0.01.

Q: Which self-cleavage does the source give for C18U C31U G33C C42A here?
A: The self-cleavage was 0.08.

Q: With C3G U28C G29C U34A G36U U38G as the variant, how does the self-cleavage read?
A: Its self-cleavage is 0.06.

Q: Which self-cleavage does the source give for G7U C8A C42U here?
A: The self-cleavage was 0.03.

Q: Which self-cleavage does the source give for A12C G22A A25C here?
A: The self-cleavage was 0.

Q: With G2U C3A A25C U34G A39U as the variant, how does the self-cleavage read?
A: Its self-cleavage is 0.03.

Q: With G2A C18G C23U G27A C37A as the variant, how does the self-cleavage read?
A: Its self-cleavage is 1.43.

Q: With C3G C13A G21C G22C as the variant, how does the self-cleavage read?
A: Its self-cleavage is 0.03.

Q: Which self-cleavage does the source give for G19C A41U C45G here?
A: The self-cleavage was 0.54.

Q: With G5U C8U C42A as the variant, how does the self-cleavage read?
A: The self-cleavage was 0.03.

Q: Which self-cleavage does the source give for U9G C23A G30A G33A C46U here?
A: The self-cleavage was 0.04.

Q: For G2A A4G G22A U34G, which self-cleavage is on record?
A: The self-cleavage was 0.19.

Q: With A14G G19C C23U as the variant, how does the self-cleavage read?
A: The self-cleavage was 0.14.

Q: Which self-cleavage does the source give for A11G A12U U20C here?
A: Its self-cleavage is 0.02.

Q: With A4G C15A U43G as the variant, how does the self-cleavage read?
A: The self-cleavage was 0.

Q: Which self-cleavage does the source give for G5C A14C A24C G30C C31A C37A here?
A: The self-cleavage was 0.08.

Q: With G7C A16G G19C A26U C46G as the variant, how does the self-cleavage read?
A: Its self-cleavage is 0.03.

Q: Which self-cleavage does the source give for G1U A16G A25G U43A here?
A: The self-cleavage was 0.01.

Q: Which self-cleavage does the source give for C3G U9G G21U here?
A: The self-cleavage was 0.1.

Q: Which self-cleavage does the source give for C3U U28G A39U here?
A: The self-cleavage was 0.07.

Q: Which self-cleavage does the source give for C3A A16C G36C here?
A: Its self-cleavage is 0.22.

Q: With G1A A6G C42U as the variant, how does the self-cleavage read?
A: The self-cleavage was 0.

Q: Which self-cleavage does the source give for G2A C15G A39U here?
A: Its self-cleavage is 0.08.

Q: With C3G A16U U20A C23U U34A C45U as the variant, how does the self-cleavage read?
A: The self-cleavage was 0.01.

Q: For C15A A24U C42G C45U, which self-cleavage is on record?
A: Its self-cleavage is 0.08.

Q: With G1U C10A G35U as the variant, how does the self-cleavage read?
A: The self-cleavage was 0.

Q: For C10A A11C C23U A24C U38C, which self-cleavage is on record?
A: Its self-cleavage is 0.

Q: With G2A G5C G17A G29A as the variant, how does the self-cleavage read?
A: Its self-cleavage is 0.05.

Q: For A6G A25G G40A G44U, which self-cleavage is on record?
A: The self-cleavage was 0.03.

Q: For U9G A11C C23U G29U, which self-cleavage is on record?
A: The self-cleavage was 0.

Q: Which self-cleavage does the source give for G5A G29C G33C G40C here?
A: The self-cleavage was 0.05.

Q: With G21A G44U C45U C46A as the variant, how does the self-cleavage read?
A: The self-cleavage was 0.03.

Q: Which self-cleavage does the source give for G5C G21C U43A here?
A: Its self-cleavage is 0.17.

Q: For A4G G29A U32C, which self-cleavage is on record?
A: The self-cleavage was 0.06.

Q: For C10A C13U C37A U43C, which self-cleavage is on record?
A: The self-cleavage was 0.02.

Q: With G21A G33U U34G as the variant, how does the self-cleavage read?
A: Its self-cleavage is 0.04.

Q: Which self-cleavage does the source give for G2A C8A U38A C42A G44U here?
A: The self-cleavage was 0.35.

Q: Which self-cleavage does the source give for G2U A11G A16C G21A A26U G33A here?
A: Its self-cleavage is 0.01.

Q: Which self-cleavage does the source give for U9G G22A G29U U34C G36U C37G here?
A: The self-cleavage was 0.02.

Q: For U9G C10A A12C C13U G21C, which self-cleavage is on record?
A: The self-cleavage was 0.03.

Q: For G1A A24G U34A C37G, which self-cleavage is on record?
A: The self-cleavage was 0.03.

Q: With G7A U20C G21C as the variant, how does the self-cleavage read?
A: Its self-cleavage is 0.05.

Q: Which self-cleavage does the source give for A6G C37G U38G here?
A: Its self-cleavage is 0.01.

Q: For C23A A39G C42G, which self-cleavage is on record?
A: The self-cleavage was 0.02.

Q: Which self-cleavage does the source give for C3A A6U G30A G36A here?
A: Its self-cleavage is 0.81.

Q: For G21U G27C C37U C45U, which self-cleavage is on record?
A: The self-cleavage was 0.02.

Q: Which self-cleavage does the source give for C3A A6C C8U here?
A: The self-cleavage was 0.15.

Q: Which self-cleavage does the source give for U9A C10U C18A C31A here?
A: The self-cleavage was 0.08.

Q: Which self-cleavage does the source give for G29U C31G U43C here?
A: Its self-cleavage is 0.02.

Q: For C10U C13A G29U G40C, which self-cleavage is on record?
A: The self-cleavage was 0.03.

Q: For G36C U38G G44A, which self-cleavage is on record?
A: The self-cleavage was 0.22.

Q: With C15G C23A C45G as the variant, how does the self-cleavage read?
A: The self-cleavage was 0.01.

Q: Which self-cleavage does the source give for C23A A24U C31U U38A here?
A: Its self-cleavage is 0.52.

Q: For U20A G22U U38G C42G, which self-cleavage is on record?
A: The self-cleavage was 0.03.

Q: For C15A G22A G30C G33C U43A, which self-cleavage is on record?
A: Its self-cleavage is 0.08.

Q: With G1C C18A C46G as the variant, how does the self-cleavage read?
A: The self-cleavage was 0.05.
